Measurements published in the supplement of paper PMC7826260.
This is one part of the list. One pool of 16,384 single-stranded DNAs met each Rep nickase domain in vitro (1 h at 37 °C, 3 µM enzyme); the outer parts of the 90-letter strands are left off. A value is the log2 ratio of uncut reads to the pool without enzyme; strong cutting gives strongly negative numbers. There is no active / inactive call. Reads are scaled to the total, so uncut sequences can rise above 0 when many others are cut.

Key:
Experiment in all cases: uncleaved DNA left, log2 of reads against the no-enzyme library (log2 ratio); higher = less cleavage (more negative = more Rep cleavage of the k-mer); sequences stand for … in CTCGTCCG…ACCGGAGA
[1] = system: T1, Rep nickase domain of Muscovy duck circovirus
T1 sequence (residues 1-111 of Rep, tag left off): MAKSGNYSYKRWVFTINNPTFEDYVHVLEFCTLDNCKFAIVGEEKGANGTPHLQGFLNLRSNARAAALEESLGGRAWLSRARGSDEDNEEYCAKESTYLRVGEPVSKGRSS
Method: (§1)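 A pool of 90-nt single-stranded DNAs with seven random bases just before the constant AC of the nick site (name = the seven bases) was cut by 3 µM recombinant His6-SUMO-tagged Rep nickase domain (300 nM DNA, 50 mM HEPES pH 8.0, 50 mM NaCl, 1 mM MnCl2, 1 h, 37 °C, three replicates). Uncut DNA was amplified and sequenced.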

[2] = system: T2, Rep nickase domain of banana bunchy top virus
T2 sequence (residues 1-94 of Rep, tag left off): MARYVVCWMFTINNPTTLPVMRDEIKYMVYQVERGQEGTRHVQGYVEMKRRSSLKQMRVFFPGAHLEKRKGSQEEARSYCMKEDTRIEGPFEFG
Method: as §1

[3] = system: T3, Rep nickase domain of cabbage leaf curl virus
T3 sequence (residues 1-116 of Rep, tag left off): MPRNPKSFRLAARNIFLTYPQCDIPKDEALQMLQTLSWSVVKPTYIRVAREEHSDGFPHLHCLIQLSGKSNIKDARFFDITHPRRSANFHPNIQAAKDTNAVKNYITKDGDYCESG
Method: as §1

[4] = system: T4, Rep nickase domain of chickpea chlorotic dwarf virus
T4 sequence (residues 1-124 of Rep, tag left off): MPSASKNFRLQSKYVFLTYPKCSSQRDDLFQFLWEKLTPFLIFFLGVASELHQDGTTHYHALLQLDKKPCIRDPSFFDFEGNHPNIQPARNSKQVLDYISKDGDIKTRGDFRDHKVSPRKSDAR
Method: as §1

[5] = system: T5, Rep nickase domain of faba bean necrotic yellows virus
T5 sequence (residues 1-98 of Rep, tag left off): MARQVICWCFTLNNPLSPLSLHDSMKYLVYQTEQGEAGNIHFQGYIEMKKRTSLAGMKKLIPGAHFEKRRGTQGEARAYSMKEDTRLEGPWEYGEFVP
Method: as §1

[6] = system: T6, Rep nickase domain of maize striate mosaic virus
T6 sequence (residues 1-117 of Rep, tag left off): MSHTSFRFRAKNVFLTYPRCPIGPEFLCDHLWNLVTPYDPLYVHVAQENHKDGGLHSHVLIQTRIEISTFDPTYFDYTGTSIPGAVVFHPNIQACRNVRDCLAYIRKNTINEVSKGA
Method: as §1

[7] = system: T7, Rep nickase domain of porcine circovirus 2
T7 sequence (residues 2-116 of Rep, tag left off): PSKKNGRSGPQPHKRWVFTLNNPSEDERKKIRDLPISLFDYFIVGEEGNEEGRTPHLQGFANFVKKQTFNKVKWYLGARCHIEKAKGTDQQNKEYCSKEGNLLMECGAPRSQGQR
Method: as §1

[8] = system: T8, Rep nickase domain of tomato golden mosaic virus
T8 sequence (residues 1-124 of Rep, tag left off): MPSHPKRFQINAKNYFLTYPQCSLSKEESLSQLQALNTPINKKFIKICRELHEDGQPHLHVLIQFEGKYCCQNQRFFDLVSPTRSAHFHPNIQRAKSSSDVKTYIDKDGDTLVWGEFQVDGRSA
Method: as §1

[9] = system: T9, Rep nickase domain of tomato yellow leaf curl virus
T9 sequence (residues 1-136 of Rep, tag left off): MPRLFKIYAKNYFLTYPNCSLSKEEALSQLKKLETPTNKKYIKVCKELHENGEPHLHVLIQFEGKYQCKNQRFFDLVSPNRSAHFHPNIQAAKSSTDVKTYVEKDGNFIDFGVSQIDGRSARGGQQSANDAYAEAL
Method: as §1

[10] = system: T10, Rep nickase domain of wheat dwarf virus
T10 sequence (residues 1-137 of Rep, tag left off): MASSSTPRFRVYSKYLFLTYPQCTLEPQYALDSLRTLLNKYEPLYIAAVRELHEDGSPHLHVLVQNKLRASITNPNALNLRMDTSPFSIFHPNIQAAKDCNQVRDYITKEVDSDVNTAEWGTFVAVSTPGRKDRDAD
Method: as §1

Row | Sequence | uncleaved DNA left (log2) [1] | uncleaved DNA left (log2) [2] | uncleaved DNA left (log2) [3] | uncleaved DNA left (log2) [4] | uncleaved DNA left (log2) [5] | uncleaved DNA left (log2) [6] | uncleaved DNA left (log2) [7] | uncleaved DNA left (log2) [8] | uncleaved DNA left (log2) [9] | uncleaved DNA left (log2) [10]
1 | GGGCGCA | -0.0541 | 0.0642 | 0.759 | 1.74 | 0.0327 | 2.1 | 0.252 | 0.0996 | 0.0372 | 0.0937
2 | ACAGATA | 0.00562 | 0.0948 | -0.0725 | -1.25 | 0.148 | -0.355 | 0.126 | 0.152 | 0.0112 | -0.00584
3 | GCAGGCC | -0.108 | 0.0623 | -0.0185 | 0.43 | -0.0233 | -0.0906 | 0.0397 | -0.0229 | -0.0124 | -0.0761
4 | CATCGCG | -0.0746 | -0.0653 | -0.748 | 0.101 | 0.0611 | -0.579 | 0.139 | -0.146 | 0.0455 | -0.0393
5 | CCCTAAC | -0.00669 | -0.0669 | -0.34 | -1.53 | -0.11 | -0.859 | -0.0651 | -0.00679 | 0.0299 | -0.036
6 | GAGAGTT | 0.0595 | -0.313 | 0.247 | -0.298 | -0.291 | 1.35 | -2.53 | 0.114 | -0.00264 | 0.0963
7 | TGTAGAG | 0.0063 | -0.0585 | -0.345 | -0.423 | -0.0413 | -0.934 | 0.0725 | -0.0618 | -0.111 | -0.168
8 | CCAGCCT | -0.176 | -0.16 | -0.405 | -2.23 | -0.121 | -0.63 | -0.184 | -0.192 | -0.21 | -0.289
9 | CTGCCAA | 0.0452 | 0.109 | -0.0152 | -0.241 | -0.0501 | -0.682 | -0.139 | -0.116 | 0.034 | 0.0342
10 | CTGGATC | 0.133 | -0.0605 | 0.192 | 0.825 | 0.0803 | 0.908 | 0.00549 | 0.0285 | -0.0405 | 0.0135
11 | TGTAGTG | -0.0673 | -0.0719 | -0.584 | -0.813 | -0.113 | -1.06 | 0.0155 | -0.117 | -0.171 | -0.205
12 | CTTGTCT | 0.0628 | 0.11 | -0.272 | -1.68 | 0.108 | -0.796 | -0.269 | 0.0136 | 0.152 | -0.0303
13 | CCAGGAA | 0.0642 | 0.0122 | 0.314 | 1.23 | -0.0291 | 1.35 | 0.256 | 0.121 | -0.0215 | 0.0865
14 | GCACGTA | 0.083 | 0.0212 | -0.0513 | -0.0747 | -0.0237 | -0.328 | 0.107 | -0.00106 | 0.0638 | -0.0146
15 | GTACGCC | -0.0132 | -0.0147 | 0.262 | 0.532 | -0.043 | 0.878 | -0.0388 | -0.104 | -0.0284 | 0.0201
